Measurements from the supplement of paper PMC10126150.
Values marked as one replicate rest on one cluster of the flow cell; about a third of the high ones do not repeat.
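Also: ATP exposure 15 min at 22 °C before imaging.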

These sequences were tested on ATP (assay: switch fluorescence ratio, 500 uM ATP over buffer (Cy3 cluster intensity, sum of 5 cycles each) (fold (ratio)); higher = stronger signal-on switching upon ATP binding; sequences stand for … in TCGTCGGCAGCGTCAGATGTGTATAAGAGACAGTTTTTTTTTTTTTTTTTTTTTTTTT…TC). Details: aptamer strand: ATP DNA aptamer (quencher-CACCTGGGGGAGTATTGCGGAGGAAGG + anchor), 100 nM annealed; ATP concentration: 500 uM; one replicate.
How it was run: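 Switching-strand clusters labelled with Cy3 on a modified Illumina MiSeq flow-cell were annealed to 100 nM quencher-labelled ATP aptamer, imaged in selection buffer, and re-imaged after 15 min with 500 uM ATP at 22 °C. This was done over five cycles with NaOH stripping and re-annealing in between. The fluorescence ratio is summed target-cycle over summed buffer-cycle Cy3 intensity per cluster, averaged per switch-domain sequence, excluding clusters outside 100-1000 RFU.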
GTAAATTGAT gave a switch fluorescence ratio of 1.01.
With GTAACCATAG the switch fluorescence ratio was 1.01.
Sequence GTAACTCTGA has a switch fluorescence ratio of 0.982.
Sequence GTAAGACGGG has a switch fluorescence ratio of 0.963.
GTAAGCGCGA showed a switch fluorescence ratio of 0.993.
In the case of GTAAGGAGTT, the switch fluorescence ratio is reported as 0.971.
Work on GTAAGGGCCT yielded a switch fluorescence ratio of 1.04.
GTAAGGTGAT showed a switch fluorescence ratio of 1.1.
GTAAGTGGGA showed a switch fluorescence ratio of 1.06.
GTAAGTTCTC was tested, and the switch fluorescence ratio was 1.
GTAATAGTGA gave a switch fluorescence ratio of 1.03.
GTAATATGGT gave a switch fluorescence ratio of 0.991.
For GTAATCGTCG, the switch fluorescence ratio was 0.985.
GTAATGTCAC was tested, and the switch fluorescence ratio was 1.03.
GTAATGTGAC was tested, and the switch fluorescence ratio was 1.17.
With GTACAATGAA the switch fluorescence ratio was 0.976.
GTACAGCCGA was tested, and the switch fluorescence ratio was 1.02.
Work on GTACATAAGG yielded a switch fluorescence ratio of 1.02.
For GTACATTT, the switch fluorescence ratio was 1.
For GTACCACGGC, the switch fluorescence ratio was 1.02.
GTACCATAAC gave a switch fluorescence ratio of 1.33.
GTACCCGCGG showed a switch fluorescence ratio of 1.06.
With GTACGACAGG the switch fluorescence ratio was 1.06.
Work on GTACGAGCAA yielded a switch fluorescence ratio of 4.79.
Sequence GTACGGATGT has a switch fluorescence ratio of 0.98.
GTACGGTTGG showed a switch fluorescence ratio of 0.993.
Work on GTACGTATTC yielded a switch fluorescence ratio of 1.09.
Sequence GTACTTCTTC has a switch fluorescence ratio of 1.08.
Sequence GTAGAAGCTT has a switch fluorescence ratio of 0.939.
Sequence GTAGATGGTA has a switch fluorescence ratio of 0.983.
GTAGATGGTT was tested, and the switch fluorescence ratio was 0.989.
For GTAGCAGGTT, the switch fluorescence ratio was 1.04.
GTAGCATTAG gave a switch fluorescence ratio of 4.25.
In the case of GTAGCTCAAA, the switch fluorescence ratio is reported as 1.05.
GTAGGAGCTG was tested, and the switch fluorescence ratio was 0.997.
Sequence GTAGGATAGG has a switch fluorescence ratio of 1.
In the case of GTAGGCAGGG, the switch fluorescence ratio is reported as 1.02.
For GTAGGCTGCA, the switch fluorescence ratio was 0.945.
GTAGGGATGC was tested, and the switch fluorescence ratio was 1.3.
Work on GTAGGGGTAG yielded a switch fluorescence ratio of 0.979.
Sequence GTAGGTTTGG has a switch fluorescence ratio of 0.991.
With GTAGGTTTTC the switch fluorescence ratio was 0.995.
Sequence GTAGTAACGG has a switch fluorescence ratio of 1.03.
With GTAGTAAGAA the switch fluorescence ratio was 1.16.
Work on GTAGTAGCAA yielded a switch fluorescence ratio of 1.68.
Sequence GTAGTAGTTT has a switch fluorescence ratio of 0.999.
Sequence GTAGTCTTTC has a switch fluorescence ratio of 1.02.
GTAGTGCGGT was tested, and the switch fluorescence ratio was 0.977.
GTAGTGTGAG was tested, and the switch fluorescence ratio was 0.978.
With GTAGTTGGGG the switch fluorescence ratio was 0.988.
GTAGTTTCTA gave a switch fluorescence ratio of 0.968.
In the case of GTATAAGCAG, the switch fluorescence ratio is reported as 1.
In the case of GTATACCGCT, the switch fluorescence ratio is reported as 1.05.
GTATACGGGT showed a switch fluorescence ratio of 1.06.
With GTATAGGTAC the switch fluorescence ratio was 1.03.
GTATATGTCA showed a switch fluorescence ratio of 1.02.
In the case of GTATCAGCGA, the switch fluorescence ratio is reported as 1.02.
Work on GTATCCATGG yielded a switch fluorescence ratio of 1.07.
GTATCGTACA gave a switch fluorescence ratio of 1.03.
GTATCTCACA gave a switch fluorescence ratio of 1.02.
In the case of GTATCTGACC, the switch fluorescence ratio is reported as 1.03.
GTATGACTCC gave a switch fluorescence ratio of 1.02.
Work on GTATGATAA yielded a switch fluorescence ratio of 0.976.
Work on GTATGATGC yielded a switch fluorescence ratio of 0.946.
In the case of GTATGCTTCA, the switch fluorescence ratio is reported as 0.965.
For GTATGGGCTT, the switch fluorescence ratio was 1.06.
With GTATGTAAAA the switch fluorescence ratio was 0.947.
GTATGTAGGT showed a switch fluorescence ratio of 0.958.
GTATGTGGG was tested, and the switch fluorescence ratio was 1.01.
Work on GTATGTGGGA yielded a switch fluorescence ratio of 0.981.
GTATGTTGGA showed a switch fluorescence ratio of 1.01.
For GTATTAACC, the switch fluorescence ratio was 0.99.
GTATTACATC was tested, and the switch fluorescence ratio was 0.981.
Work on GTATTAGTAT yielded a switch fluorescence ratio of 0.953.
Sequence GTATTGAATA has a switch fluorescence ratio of 0.969.
GTATTGGTTT gave a switch fluorescence ratio of 0.994.
